Results: PubChem BioAssay (NCATS)
Some of the results follow. The main result of the screen is listed elsewhere. These columns were measured beside it and carry no call. The list favours compounds with an active or inconclusive main result. The note in brackets gives the kind of curve behind each potency; many fits are weak.

Assay: qHTS Assay for Lipid Storage Modulators (AID 1519)
Conditions: Drosophila S3 cells, BODIPY lipid droplet/cell ratio, laser cytometry, cells loaded with oleic acid
Procedure, shortened: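 Cells seeded at 5,000 per well were treated with compounds over a concentration series and loaded with oleic acid (400 uM, as added). Lipid droplet fluorescence (488 nm excitation, 500-530 nm channel) was read by laser-scanning cytometry and normalized to 20 uM Triacsin C.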

[1] = measured here: cell count channel max response
[2] = measured here: cell number channel AC50
[3] = measured here: lipid (BODIPY) channel AC50
[4] = measured here: lipid channel max response
Tags give direction and shape of the fitted curve.

SMILES: C=CC(C)(C)c1[nH]c2ccccc2c1C1=C(O)C(=O)C(c2c[nH]c3c(CC=C(C)C)cccc23)=C(O)C1=O
- max response [1]: 60.4%
- AC50 [2]: 15800 nM [rising, partial curve]
- AC50 [3]: 14100 nM [rising, partial curve]
- max response [4]: 79.6%

SMILES: CC(C)=CCC/C(C)=C/COc1c2occc2cc2ccc(=O)oc12
- max response [1]: 88%
- AC50 [2]: 1580 nM [rising, full curve]
- AC50 [3]: 1410 nM [rising, full curve]
- max response [4]: 119%

SMILES: O=C(O)c1c2ccccc2cc2ccccc12
- max response [1]: 66.9%
- AC50 [2]: 28200 nM [rising, partial curve, poor fit]
- AC50 [3]: 28200 nM [rising, partial curve]
- max response [4]: 96.5%

SMILES: COc1cccc(Nc2ncc3nc(-c4ccccc4)c(=O)n(C)c3n2)c1
- max response [1]: 8.8%
- AC50 [2]: 1580 nM [rising, partial curve]
- AC50 [3]: 1580 nM [rising, partial curve, poor fit]
- max response [4]: 5.45%

SMILES: Cc1noc(C)c1-c1nccc(NC2CC2)n1
- max response [1]: 28.1%
- AC50 [2]: 355 nM [rising, full curve]
- AC50 [3]: 398 nM [rising, full curve]
- max response [4]: 33.7%

SMILES: COc1ccc(-c2nc3cnc(OCc4ccccc4)nc3n(CCC#N)c2=O)cc1
- max response [1]: 25.5%
- AC50 [2]: 3550 nM [rising, full curve, poor fit]
- AC50 [3]: 3550 nM [rising, single point]
- max response [4]: 28.3%

SMILES: COc1ncc2nc(-c3cccs3)c(=O)n(Cc3ccc(F)cc3)c2n1
- max response [1]: 34.6%
- AC50 [2]: 100 nM [rising, full curve]
- AC50 [3]: 126 nM [rising, full curve]
- max response [4]: 40.9%

SMILES: Cc1ccc(C(=O)[C@@H]2[C@H]3C4COC(O4)C(=O)[C@@H]3[C@H]3C=Cc4ccccc4N32)cc1 (stereo not given in full)
- max response [1]: 73.5%
- AC50 [2]: 12600 nM [rising, partial curve]
- AC50 [3]: 14100 nM [rising, partial curve]
- max response [4]: 95.7%

SMILES: O=c1c(-c2cccc(F)c2)nc2cncnc2n1Cc1ccccc1
- max response [1]: 21.1%
- AC50 [2]: 891 nM [rising, full curve]
- AC50 [3]: 794 nM [rising, full curve]
- max response [4]: 28.9%

SMILES: c1ccc2c(NCCN3CCOCC3)nc(-c3ccoc3)nc2c1
- max response [1]: 33%
- AC50 [2]: 89.1 nM [rising, full curve]
- AC50 [3]: 70.8 nM [rising, full curve]
- max response [4]: 43.8%

SMILES: COc1ccc(Oc2ncc3nc(-c4ccccc4)c(=O)n(CCC#N)c3n2)cc1
- max response [1]: -0.229%
- AC50 [2]: 1000 nM [rising, partial curve, poor fit]
- AC50 [3]: 1120 nM [rising, partial curve]
- max response [4]: 2.19%

SMILES: CCN1CCC[C@H]1CNC(=O)c1c(OC)ccc(Br)c1OC
- max response [1]: 30.5%
- AC50 [2]: 31600 nM [rising, single point]
- AC50 [3]: 31600 nM [rising, single point]
- max response [4]: 31.3%

SMILES: COCCn1c(=O)c(-c2ccc(Cl)cc2)nc2cncnc21
- max response [1]: 27.6%
- AC50 [2]: 100 nM [rising, full curve, poor fit]
- AC50 [3]: 112 nM [rising, full curve]
- max response [4]: 44.6%

SMILES: COC1=CC(=O)CC(C)C12Oc1c(Cl)c(OC)cc(OC)c1C2=O (stereo not given)
- max response [1]: 88.5%
- AC50 [2]: 14100 nM [rising, partial curve]
- AC50 [3]: 14100 nM [rising, partial curve]
- max response [4]: 115%

SMILES: CCCCCCCCCCCCCCCC(=O)O[C@H](CC(=O)O)C[N+](C)(C)C
- max response [1]: 33.9%
- AC50 [2]: 7940 nM [rising, partial curve, poor fit]
- AC50 [3]: 14100 nM [rising, partial curve, poor fit]
- max response [4]: 49.2%

SMILES: NC(=O)c1ccc[n+]([C@@H]2OC(COP(=O)([O-])OP(=O)(O)OCC3OC(n4cnc5c(N)ncnc54)C(O)C3O)C(O)C2O)c1 (stereo not given in full)
- max response [1]: 43.2%
- AC50 [2]: 14100 nM [rising, partial curve, poor fit]
- AC50 [3]: 20000 nM [rising, partial curve, poor fit]
- max response [4]: 71.6%

SMILES: COc1cccc(Cn2c(=O)c(CCc3ccccc3)nc3cnc(N(C)C)nc32)c1
- max response [1]: 28%
- AC50 [2]: 447 nM [rising, full curve]
- AC50 [3]: 447 nM [rising, full curve, poor fit]
- max response [4]: 30.5%

SMILES: COc1ccc(-n2c(=O)c(-c3cccs3)nc3cnc(Nc4ccccc4)nc32)cc1
- max response [1]: 128%
- AC50 [2]: 14100 nM [rising, partial curve]
- AC50 [3]: 39800 nM [falling, single point]
- max response [4]: -55.1%

SMILES: O=C(/C=C\c1ccc(O)c(O)c1)O[C@@H](Cc1ccc(O)c(O)c1)C(=O)O
- max response [1]: -2.96%
- AC50 [2]: 15800 nM [rising, single point]
- AC50 [3]: 15800 nM [rising, partial curve, poor fit]
- max response [4]: 6.02%

SMILES: Cc1noc(C)c1-c1nccc(NCc2cccs2)n1
- max response [1]: 3.03%
- AC50 [2]: 1000 nM [rising, partial curve]
- AC50 [3]: 398 nM [rising, full curve, poor fit]
- max response [4]: 12.8%
